Among the data in PMC12136788 are binding signal values, retold here.

The list shows a part of the results.

Sequences and labels used below:
T1: UNK ZnF1-3 (human, UniProt Q9C0B0 31-174)
T1 sequence: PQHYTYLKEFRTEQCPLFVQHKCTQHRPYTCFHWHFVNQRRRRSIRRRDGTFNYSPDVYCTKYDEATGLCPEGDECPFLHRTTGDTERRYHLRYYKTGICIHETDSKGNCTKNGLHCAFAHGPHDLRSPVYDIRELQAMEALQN

B1: chr21:38595834:38595835:-_ENSG00000157538_ENST00000309117|hu_hu|FALSE|FALSE (ssRNA)
RNA: GGGAGUUCUACAGUCCGACGAUCCAUUAAAAAUGGUUUCUUCCUUUAAAAUUUCCCAGAAAGUGUGGCCUCUGUUUUCUGCUACUCAGUUUAAACACAUCAUCAAGGAUAGAUAAUUAAUGUCAGGUGAGCAUAAAAGGAGAUCAACAGAGGAUUGAGCAUCA
B2: 68295611_68295731_2284_3pUTR_ENSMUSG00000048922_ENSMUST00000150006|mouse|control|control (ssRNA)
RNA: GGGAGUUCUACAGUCCGACGAUCGUGGAGCUAAGCAUUCACUCUCUUUCUCACACUUUAGAUUCAUACUUUCUGAAACAAUAAGGAUCUCACAAGGAUUUUCCAAAUUUUGACCAGCCUUGAAAAGGUCCUGGCUCUGAGGGCCAACAGAGGAUUGAGCAUCA
B3: 86677321_86679958_414_CDS_ENSMUSG00000034290_ENSMUST00000040992|mouse|control|control (ssRNA)
RNA: GGGAGUUCUACAGUCCGACGAUCGAUGUUGUCGUGCUGUAGCAGUGCCAGGAUGACAAUCUCAUUCAGGGCAUCUCGACGUUCCUUCUCAGAUAGCCGGGUCAAGUCAACUUCCUUCCACACCACCAGUGAGUCGUCCUCGGUCAACAGAGGAUUGAGCAUCA
B4: chr1:163117072:163117073:-_ENSG00000143248_ENST00000313961|hu_hu|motif|central (ssRNA)
RNA: GGGAGUUCUACAGUCCGACGAUCGGAAAUGCAGGGUUAUUAUGGAGGAAAUAACUCACAGGAUGAUUUCAUAGCCUGGCGGAAUUACUACUUGAUUAACUCCUGAUAAAACUCAGAGCGCACAAAGCGAGGCAGAGAAUCCUUCAACAGAGGAUUGAGCAUCA
B5: 3201580_3205767_5695_CDS_ENSG00000197386_ENST00000355072|human|control|control (ssRNA)
RNA: GGGAGUUCUACAGUCCGACGAUCACUAAGUAACUUUGUGCUGGACAGACUGUGUCUUUUCGGGGUCUGCUGCACUUCUGCCCACCAGCGGUAGUCGGUGUGGUUGACAAGCAGCAGUAUCUGACACCAGAGCAGCACCAGGGCCAACAGAGGAUUGAGCAUCA
B6: chr2:146230686:146230687:-_ENSMUSG00000037110_ENSMUST00000109986|mus_hu|FALSE|FALSE (ssRNA)
RNA: GGGAGUUCUACAGUCCGACGAUCGUAACCAAUGACGGGCAUCAGCAUCAGCCACAACAUCUGUGGGAGUAUUCAGUUCUGGGUCUUCCUCACAGGUCUGCCAUGGGCCCAUGGACAGCUCUGCCUCAUUGGUACAGCCCAGAGCAACAGAGGAUUGAGCAUCA
B7: 60629684_60631069_663_3pUTR_ENSG00000146872_ENST00000343388|human|control|control (ssRNA)
RNA: GGGAGUUCUACAGUCCGACGAUCUCUUACUGUUUUCUAGUGCAGAUAUUUUUUCUAUUGUGAGGUCGGACUGGGUCUGUCUGUGCUGGAUGGAGAUCUGUUUUUGGGAGCUGCAGGAAUGCUCUGUGUUGCCAGAUCCCGUAGCAACAGAGGAUUGAGCAUCA
B8: chr2:64323713:64323714:-_ENSG00000197329_ENST00000358912|hu_mus|FALSE|FALSE (ssRNA)
RNA: GGGAGUUCUACAGUCCGACGAUCGCUUUGUACUGACUGCGUGUCGGAAUUACUCUGACUUCCAGGAACGGUGUCAGUUACUACAAAAUCAAUAGGACUUUCAGUUGACCGACCAAUCUGAAACAUAUCAGUGUUGCUGUCAUGCAACAGAGGAUUGAGCAUCA
B9: chr17:45747064:45747065:+_ENSG00000108424_ENST00000290158|hu_hu|hu_hu_hu_mus_True|28_108 (ssRNA)
RNA: GGGAGUUCUACAGUCCGACGAUCGCCUACAGUCCAUGCUGUUGUGUCUCGAACAACUACACUGGGGUCUUUCAUUAGUUCUAUUAGGGUGGGCAUAGCCUGUAUGACUAGUGGUUUCAGUUGAUUAGGCUCUGGUCCUUCCAACAACAGAGGAUUGAGCAUCA
B10: chr16:94647761:94647762:+_ENSMUSG00000040785_ENSMUST00000117648|mus_mus|FALSE|FALSE (ssRNA)
RNA: GGGAGUUCUACAGUCCGACGAUCGAUAAUCUUAGAAAUGAUUCCCUCACAAUCGGGAGUGAGACAGAUUCCUUGUAGAAAAUCCUUGUCAAUUUUAUCAUUAAAAGUUGUUGUUUUUAACUUUUUCCAGCAGUUCAUAUGAAACAACAGAGGAUUGAGCAUCA
B11: chr7:30640729:30640730:+_ENSG00000106105_ENST00000389266|hu_hu|motif|central (ssRNA)
RNA: GGGAGUUCUACAGUCCGACGAUCCUGAAUAAUAUUGUUCUUCAAAGCACAGCCAACUGGCCCAAAGUCAUACAGACCACGGACACCUCCAUAAAUAGCAAAAGCUUGAUCAUAGAAAAACCUCCUCUUCAGGGUAUCUUCCAUCAACAGAGGAUUGAGCAUCA
B12: 113631578_113639612_387_3pUTR_ENSG00000086827_ENST00000200135|human|control|control (ssRNA)
RNA: GGGAGUUCUACAGUCCGACGAUCCUUUCCAACUGCUGCUUUAAGUCUGUAAAUUCACCGGUUGAUACGUGAAGAUCCCGGCGGACCUCACUCUCUAUCCUGGAUUUCAGCAGGUCAAUGUCUUCAGAUAGCUUAUCCACCUGGCAACAGAGGAUUGAGCAUCA
B13: chr4:101271765:101271766:+_ENSMUSG00000028528_ENSMUST00000094953|mus_mus|FALSE|FALSE (ssRNA)
RNA: GGGAGUUCUACAGUCCGACGAUCAGACUUGGGUGACAAGUUGUAUACUGUGUAGUGGUCAAGAUGUCUGGAAUCCAAAAAGCUACGGAUGUCAUCAACCUGAUUCCUGAAUCCUAUGUCAACACUAUCCACAGGAAAGGACAUCAACAGAGGAUUGAGCAUCA
B14: chr22:19452774:19452775:-_ENSG00000070010_ENST00000399523|hu_hu|hu_hu_hu_mus_False|38_68 (ssRNA)
RNA: GGGAGUUCUACAGUCCGACGAUCCUUCUCAUUGUAGUUGAUAGCAAUCACAUCUCCAGUCGUCAGACAGGCAAAGUUUCUCAAUGCAUUUUCUAAUACGGCUUUGGGGUUGGUAAUAUCCAGGAAGUCUGGGCUCUGAGGCUGCAACAGAGGAUUGAGCAUCA
B15: 105531169_105531289_1356_3pUTR_ENSMUSG00000068798_ENSMUST00000090678|mouse|control|control (ssRNA)
RNA: GGGAGUUCUACAGUCCGACGAUCAUAAACAAUAACAAAAAGACACAAACCAAAUGAAAAUGUACUAAAAUUUAAUCAUCCAUAAAAGCUGUAAUUUAAUCUGACAGUAAAACACAAGAAGCAAUAUUAGAGUUGGUUUAGUAUCAACAGAGGAUUGAGCAUCA
B16: chr17:61910164:61910165:-_ENSG00000108604_ENST00000448276|hu_mus|FALSE|FALSE (ssRNA)
RNA: GGGAGUUCUACAGUCCGACGAUCCAGUAAUAAGGCUUUGGGAACCAAGCAGUGAGGGAUCUAAAACUACAUUUAUGAAACUAAAGCUGGGGAGUGGAGGGUGACAGGAAACACACCUCACUCCAUCCUACAUGUCUGCAGCCCCAACAGAGGAUUGAGCAUCA
B17: chr1:235506033:235506034:+_ENSG00000152904_ENST00000391855|hu_hu|motif|central (ssRNA)
RNA: GGGAGUUCUACAGUCCGACGAUCUUAACAUUAUUCAUUUUCUUCUUUGAACAUCUUACUUAAGUGUUUUACUAAGGCGGCGGGCUCAGGGUUCCCACCACGUGCAUCAAUCUGUUUAUAGGCUUUAGCUUCAAGCUCUUUAAGCAACAGAGGAUUGAGCAUCA
B18: chr14:65392728:65392729:+_ENSG00000258289_ENST00000359118|hu_hu|FALSE|FALSE (ssRNA)
RNA: GGGAGUUCUACAGUCCGACGAUCGUAUCUUCGGCUUUGCCGCAUAACAGACACAGCAUGGUAUACUCGAUCAUAGGUAACUAUUUCUUCUCCAUCUUCUUCUUUCAAGGAUUUGUUUGUGAUCAGCAUAAAAUCCCGCUUACUCAACAGAGGAUUGAGCAUCA
B19: chr13:110848956:110848957:-_ENSMUSG00000021700_ENSMUST00000167824|mus_mus|motif|central (ssRNA)
RNA: GGGAGUUCUACAGUCCGACGAUCAGACAAACCAACACUAGAGUUCUUGGGAGUGUUUUCCGAAGCAGUUAGGGUUGUUCGGAAAACAAUGGAUGGGCAGGGGUACCCAGAUGACCACAGGGGAGGGCAAUGACACACUUAAAACAACAGAGGAUUGAGCAUCA
B20: 14083628_14083748_6356_3pUTR_ENSG00000147862_ENST00000380959|human|control|control (ssRNA)
RNA: GGGAGUUCUACAGUCCGACGAUCGUAGAGUUGUUUCAUUAAAAAUGAAUACUGUACACUGAAUAUGGGAUAACUUUCUGCAGCCUUCAUCAUUUCACACAGUACAUAGAAUUUGAAUCUAGGUAAAGAACAUGUCCUGCUGUCCAACAGAGGAUUGAGCAUCA
B21: chr7:27831639:27831640:+_ENSG00000106052_ENST00000265393|hu_mus|FALSE|FALSE (ssRNA)
RNA: GGGAGUUCUACAGUCCGACGAUCAAGUUCUUGCCGUGUUGCCUGGACUUGUUCCUCCGCUUUGCGAAGUUGCUCCUUUAAAAAUAAUGUAUCUUCUUUAUUUGAGGUUGUAAGCAGGAGAGCUCUGUACAAAUUUUCCUUGUCCAACAGAGGAUUGAGCAUCA
B22: chr11:118025658:118025659:-_ENSMUSG00000017132_ENSMUST00000017276|mus_hu|motif|central (ssRNA)
RNA: GGGAGUUCUACAGUCCGACGAUCUUGUAUUUUGACAAAACUUCUUUUAAACAAAUACAAAAUAAUCUAAAAGGAGAAAAACGGUACAUAGAUUAUUUACACCUCUGAUAAAUAGACUAAUACUGACCCAGGUGCCUCUCUGUCCAACAGAGGAUUGAGCAUCA

The assay concerns the target T1, UNK ZnF1-3. Briefly: nsRBNS (natural sequence RNA bind-n-seq); RBNS binding buffer (assumed for nsRBNS): 25 mM Tris pH 7.5, 150 mM KCl, 3 mM MgCl2, 0.01% Triton X-100, 500 ug/ml BSA, 20 U/ml SUPERase-In, 4 C; UNK is unkempt and MSI1 is Musashi-1; names of the RNAs are library labels; protein concentration not given here; high values mean tight binding.
In turn, B1 yielded a binding signal of 1.49 enrichment R.

The molecule B2 registered a binding signal of 0.964 enrichment R.

B3: the binding signal amounted to 0.623 enrichment R.

On to B4, for which the binding signal was 1.53 enrichment R.

Turning to B5, the binding signal turned out to be 0.698 enrichment R.

Regarding B6, the binding signal was 1.11 enrichment R.

In the case of B7, the binding signal came out at 0.544 enrichment R.

Take B8: the binding signal was determined as 0.382 enrichment R.

Molecule B9 came in with a binding signal of 0.667 enrichment R.

Take B10: the binding signal is 0.548 enrichment R.

B11: the binding signal was 1.05 enrichment R.

B12 returned a binding signal of 0.543 enrichment R.

In the case of B13, the binding signal is 1.11 enrichment R.

Regarding B14, the binding signal was found to be 1.03 enrichment R.

B15 displayed a binding signal of 1.54 enrichment R.

On to B16, for which the binding signal was found to be 1.24 enrichment R.

Molecule B17 returned a binding signal of 0.627 enrichment R.

As for B18, the binding signal was determined as 0.662 enrichment R.

In turn, B19 had a binding signal of 1.96 enrichment R.

B20: the binding signal is 0.719 enrichment R.

Turning to B21, the binding signal stood at 0.672 enrichment R.

Regarding B22, the binding signal is 1.49 enrichment R.
